Source: the BET-seq Pho4 binding data (Le et al. 2018)
This is one part of the list. The energies were worked out here from pooled read counts, against the library average; single values are noisy.

What follows are sequences tested against T1, Pho4 (S. cerevisiae) (UniProt P07270) (assay: relative binding free energy (BET-seq); higher = weaker binding). Settings: reference: library average.
T1 sequence: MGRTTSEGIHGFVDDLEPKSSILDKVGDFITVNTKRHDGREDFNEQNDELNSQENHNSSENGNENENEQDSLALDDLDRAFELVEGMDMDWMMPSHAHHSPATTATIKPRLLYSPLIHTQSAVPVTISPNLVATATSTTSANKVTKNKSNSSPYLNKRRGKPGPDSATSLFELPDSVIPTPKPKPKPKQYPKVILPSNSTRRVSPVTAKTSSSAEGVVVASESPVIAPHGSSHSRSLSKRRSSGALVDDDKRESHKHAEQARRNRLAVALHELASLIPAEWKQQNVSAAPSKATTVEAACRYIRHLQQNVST

Sequence	relative binding free energy [kcal/mol]
TTTAGCACGTGAGGTA	0.11
TGGAACACGTGAAGTG	0.2
TGGGTCACGTGCTAGG	0.01
AGGGTCACGTGGATCG	0.25
TTCTACACGTGGGGCA	0.11
GTTAGCACGTGTATAG	-0.04
TGCAGCACGTGGGCGG	-0.28
AGAAGCACGTGCGAGG	-0.09
CAGTCCACGTGGGTTG	-0.04
TGTTACACGTGTGCTT	-0.01
TCTTGCACGTGATGAG	0.24
GTGGTCACGTGGAGAC	0.23
TGGGTCACGTGTTGCT	0.17
ATTTGCACGTGGTTTG	-0.03
GAGCGCACGTGCTGGG	-0.05
CAGGGCACGTGTAGGC	-0.04
AATGGCACGTGCGGGG	-0.03
TTGCTCACGTGAAGTT	0.42
ATAGTCACGTGAGTCT	0.28
TATTACACGTGCTGTT	-0.05
TAGTACACGTGTCAGT	0.04
AAGATCACGTGTGGGC	0.21
AGACTCACGTGAGGGT	0.36
TTGTGCACGTGTTTTT	0.09
GGTTGCACGTGATTGG	0.24
TGGAGCACGTGAGCTT	0.12

Sequence	relative binding free energy [kcal/mol]
TGTTACACGTGTGAGG	0.28
AGGTTCACGTGCTATG	0.27
TTGGTCACGTGAGATC	0.34
ATTGGCACGTGCCAGG	-0.22
CACTGCACGTGTGGTG	0.06
TGATGCACGTGTTCGG	0.02
ATCAGCACGTGTTGGT	-0.07
GGCGTCACGTGGTGAG	0.05
TCTTACACGTGGTATG	0.04
AGGATCACGTGTATGA	0.24
AAGGGCACGTGGAAAT	0.01
GGGTTCACGTGCATGG	0.25
GTGTGCACGTGATAGC	0.1
GTGTACACGTGGGAAG	0.1
TAGGCCACGTGGAATA	0.22
GTTGTCACGTGGGACA	0.04
TGGGTCACGTGAGGTT	0.37
ATACGCACGTGTGGAG	-0.11
TTGAACACGTGGCCGG	0.04
AGGCACACGTGTGTAT	0.14
ACTGTCACGTGCGGGG	0.06
TTTTACACGTGGGGAC	0.04
GCGTGCACGTGGCGTT	-0.14
CGGAGCACGTGCGGTG	-0.12
TTTATCACGTGATAAA	0.22
GATTGCACGTGGTGTC	0.14

Sequence	relative binding free energy [kcal/mol]
GTAAGCACGTGCGTTG	-0.08
TTGCGCACGTGGTGCT	-0.23
GGGGTCACGTGGGCCG	0.1
GAGGGCACGTGTGTGT	-0.04
TGCTACACGTGTTGTA	0.01
GTGAGCACGTGAAGCG	0.33
TGGAACACGTGGTGTG	-0.05
TTATGCACGTGGCTCT	-0.14
GGTCGCACGTGTGTTC	0.11
GTGTTCACGTGGATAG	0.19
TGTAGCACGTGAGAGA	0.24
ATATTCACGTGTTGTA	0.2
ATCTACACGTGTGGGA	0.21
TGTTACACGTGCTTGC	0.19
GAGTTCACGTGTTAGA	0.31
CGAGTCACGTGCGGGT	0.12
TCGCGCACGTGGGGGA	-0.23
ACGTTCACGTGGGGAT	0.27
CGGGGCACGTGGTCGC	-0.15
CAAGTCACGTGGGCTG	0.05
ATTGGCACGTGTTTAC	-0.22
GTGTCCACGTGGTAGG	0.07
CGGTCCACGTGAGTGG	0.14
ATTATCACGTGGTCTG	-0.05
CAGTGCACGTGTGGTT	0.09
GGTGACACGTGTGATG	0.18

Sequence	relative binding free energy [kcal/mol]
AGTGGCACGTGATAGG	0.1
GCGCGCACGTGGGGAG	-0.19
GTCTGCACGTGTAATT	0.14
ATATGCACGTGGATGG	-0.11
ATGGTCACGTGTCGAG	0.05
TGCTGCACGTGGGGAC	-0.12
TTTTACACGTGTCAGA	0.17
GAGGTCACGTGCGTGT	0.17
TTTGTCACGTGTCCTT	-0.06
GTAGTCACGTGAGGTG	0.3
GTTTTCACGTGTGGAA	0.33
TGCTGCACGTGTTTTT	-0.04
TTGTACACGTGGAGGA	-0.1
CTGTCCACGTGTGTGG	0.02
AGTAGCACGTGGATTG	-0.14
TCGTTCACGTGTTGTA	0.41
TCTGTCACGTGGGTTA	-0.09
ATAACCACGTGTGGGT	-0.01
GTAAGCACGTGTGTAA	0
CTTGTCACGTGACGGT	-0.01
GGGGCCACGTGGGGGG	-0.12
TGGTTCACGTGTTTCT	0.24
GTCGGCACGTGGTTCT	0.03
AATAGCACGTGGTTAT	-0.14
AACAGCACGTGGGGAG	-0.07
TTGCGCACGTGTGGGT	-0.11

Sequence	relative binding free energy [kcal/mol]
TTTAGCACGTGTTTAC	-0.13
GATGTCACGTGTTTTT	0.24
GCGAGCACGTGATTGG	0.17
GCTTTCACGTGGTTAG	0.44
TTGCACACGTGTTTTA	0.17
GGTGGCACGTGTTTCA	-0.07
TAAGGCACGTGATTGT	-0.02
TGGAGCACGTGTGAGT	0
CGTGACACGTGAGGTT	0.15
ACGGCCACGTGTTGGG	0.01
CGTAACACGTGGTTTG	-0.17
AGCTTCACGTGTGGCT	0.18
AGGGGCACGTGGGACA	-0.29
AAGCGCACGTGTTGGT	-0.15
TGTTGCACGTGCTTGG	0.02
ATTAGCACGTGTATAG	-0.12
GTGGTCACGTGGATAT	0.21
GGGTTCACGTGGTTGC	0.37
GGATTCACGTGTAATG	0.43
TAATTCACGTGGTTGC	0.29
TTATCCACGTGTGGGA	-0.12
GAATTCACGTGGTACG	0.37
GGCAGCACGTGTATGG	0
TTAGGCACGTGTGTTC	-0.13
ATTTTCACGTGGAGAG	0.27
TTAGACACGTGAGGTC	0.18

Sequence	relative binding free energy [kcal/mol]
CTTAGCACGTGATGAT	0.11
ATTTACACGTGTTTGC	0.11
AGCAGCACGTGGTGTT	-0.3
GGAGTCACGTGAGGTT	0.29
GGTAGCACGTGAGGCG	0.24
AGTAGCACGTGTGTTG	-0.15
AGAATCACGTGTGGGC	0.28
GGGGTCACGTGTGCGT	0.02
AGAAGCACGTGTAGGT	-0.13
TGTGCCACGTGGGACG	-0.26
TATGGCACGTGATTTT	0.03
GTGGCCACGTGTGAAT	0.23
TATGACACGTGGTTCA	-0.05
GGGCCCACGTGGAGTG	-0.14
AGGGACACGTGCGTTT	-0.17
TTGCGCACGTGTGCGG	-0.21
TTTGCCACGTGAGGAG	0.27
GGTGTCACGTGTAGAT	0.33
AGGTGCACGTGTTCGA	-0.05
AAGTGCACGTGGTCAG	-0.19
GGCGGCACGTGTGTAG	-0.02
GGGTCCACGTGGAGCG	0.08
TGGTTCACGTGGTTTA	0.23
GTTCACACGTGATAGT	0.39
GGACGCACGTGGTTGT	-0.05
TGTGGCACGTGCCTGA	-0.15

Sequence	relative binding free energy [kcal/mol]
ATGGACACGTGATGCT	0.08
GGGGGCACGTGCGCAG	-0.16
ATTTACACGTGACTTT	0.16
GTCTGCACGTGAAGGG	0.27
GGAGACACGTGAGGTT	0.08
AAGGTCACGTGGTACT	0.03
CCGTTCACGTGTGGTT	0.32
GATATCACGTGTTTGC	0.21
AGTGGCACGTGATTAT	0.11
TGAGGCACGTGCGGTA	-0.15
GTAAACACGTGTTATG	0.07
TTAATCACGTGAGGGG	0.38
GGGCTCACGTGGGCCG	0.1
TGGTGCACGTGCATAG	-0.11
ACGGTCACGTGGTTTA	-0.04
TCAGTCACGTGTAGAG	0.1
TTTGTCACGTGCCGGG	0.09
TGCGTCACGTGTGTGA	0.08
GATGTCACGTGCGTGT	0.01
TGTGGCACGTGCTTGT	-0.17
GTGTGCACGTGGTTTC	-0.01
TTTAGCACGTGTCTGA	-0.08
ATTGGCACGTGATCAG	-0.05
TAGGGCACGTGTGGCC	0.04
CGTGCCACGTGGGGGT	-0.31
TGCAGCACGTGGTTCG	-0.06

Sequence	relative binding free energy [kcal/mol]
TGGCGCACGTGGTATA	-0.04
TGAGACACGTGGTTAT	-0.11
AAGATCACGTGTGTGG	0.21
AGGAGCACGTGGTTTG	-0.04
CTAGTCACGTGGATGG	-0.11
TTATGCACGTGGTGAT	-0.09
GCATGCACGTGTAGGG	-0.06
GGTTGCACGTGTGGCG	0.07
TTCGTCACGTGGTTCT	0.11
TTATTCACGTGAGTTG	0.49
AGGCGCACGTGGGGAT	-0.32
ATGTTCACGTGTTCTA	0.15
AGCATCACGTGATGGG	0.2
GAGGGCACGTGCGTAG	-0.28
TGACGCACGTGTTGGA	-0.12
GCGTGCACGTGAGGCA	0.4
TGTTTCACGTGGAAGT	0.35
TTAGGCACGTGGGCCG	-0.1
AGGGTCACGTGTTTGA	0.16
GTGATCACGTGGCAGG	-0.01
GGGCGCACGTGATCGG	0.1
TGCGGCACGTGTGAGT	0.01
ATTGGCACGTGTGGTC	-0.09
TGGGGCACGTGCAGCA	-0.21
AATATCACGTGTATTT	0.02
ATGATCACGTGGGTCA	0

Sequence	relative binding free energy [kcal/mol]
TAGGTCACGTGTCTAA	0.18
GGGTACACGTGGGGTG	-0.03
TTTATCACGTGAGGGA	0.46
TTGGGCACGTGTCGGA	0.09
GAGAGCACGTGGTGTC	0.1
TGTAACACGTGCGAGG	-0.05
GGGTGCACGTGTAACG	0.1
TAACGCACGTGTTTTT	0.02
TGGGGCACGTGTGAGC	-0.03
AAGTTCACGTGTAAGG	0.28
GTTGCCACGTGGCGGA	-0.14
AGTTTCACGTGGTCAA	0.18
GGTAACACGTGGCGGT	0
AAATGCACGTGTTATT	-0.13
TGGTGCACGTGATACG	0.11
TGGGTCACGTGTGAAT	0.27
CGTTCCACGTGGGTAG	0.04
GGTGCCACGTGACGTG	0.07
TTGTTCACGTGGTATC	0.36
CTTCGCACGTGGTGTT	-0.28
TGGTTCACGTGTAGCG	0.25
AAGAGCACGTGCGGTG	-0.16
